Data reported in US12109190B2, “Urolithins as immune response enhancers” (Amazentis SA, priority 2018, dated 2024).

Test system: flu strains H1N1, H3N2 and Type B
Test: Phase 2 clinical trial: antibody titres in response to flu vaccination after Urolithin A
Conditions: elderly 65-90 yrs, four weeks intervention before vaccination; placebo anticipated 15-30%

O=c1oc2cc(O)ccc2c2ccc(O)cc12 [Urolithin A]
anticipated seroconversion post flu vaccination: 40-60%
